Source: ChEMBL document CHEMBL4888484, “Replenishing the malaria drug discovery pipeline: Screening and hit evaluation of the MMV Hit Generation Library 1 (HGL1) against asexual blood stage Plasmodium falciparum ,using a nano luciferase reporter read-out” (2022)
Screen size: about 150,000 compounds; about 540 (0.36%) showed an effect of 50% or more. This is one part of the list.

The compounds below were run on Plasmodium falciparum (assay: Primary screen in NF54 nanoGlo assay, in single point, at 2uM, 72h; a lower Z score goes with more inhibition). Conditions: timepoint 72 hour.
Format: functional, Erythrocyte

Structure (SMILES) | % Inhibition [%] | Z score
O=C(O)[C@H]1CCCN(C(=O)c2cccc3[nH]ccc23)C1 | 1 | -0.22
Cc1ccccc1-c1cnc(Cn2nc(C)c([C@@H]3COCCN3C)c2C)o1 | -16 | 1.84
O=C(CN1C(=O)COc2ccc(C(=O)N3CCN(Cc4ccccc4)CC3)cc21)N1CCCC1 | -12 | 1.59
C[C@@H](C(N)=O)N1CCN(C(=O)C2CCCC2)CC1 | -9 | 1.34
Cc1c(C#N)c(NC(=O)CN2CC(OCC(=O)N(C)C)C2)n(-c2ccccc2)c1C | 8 | -1.09
CCOc1cc(C#N)c(Br)c(Br)c1O | 34 | -3.8
CCCn1c(C)cnc1CC1CCN(C(=O)c2cnccc2C)CC1 | -1 | 0.14
FC1(F)C[C@@H](c2nnc(-c3cnccn3)o2)N(C2CCC2)C1 | 2 | -0.3
CC1(O)CN(C(=O)c2cc3c(Br)cccc3[nH]2)C1 | -3 | 0.35
Cc1cc(=O)n(CC(=O)N2CCCC[C@@H]2CCc2ccccc2)nc1C | -18 | 3.31
C#CCCC1(CCC(=O)Nc2ccc3nc(C)nn3c2)N=N1 | -9 | 1.66
COc1cccc(CNCCN2CCOCC2)c1OCc1ccc(Cl)cc1Cl | 38 | -5.16
O=C(O)c1cc2c(-c3cccs3)nn(-c3ccccc3)c2[nH]1 | 3 | -0.43
Cc1nc(O)cc(CCn2ccnc2-c2ncc[nH]2)n1 | -7 | 0.64
Clc1ccccc1-n1nncc1CN1CCNCC1 | -12 | 2.23
CCN1CCC[C@@H]1CNC(=O)C1=Cc2ccccc2OC1 | -11 | 1.79
COc1ccc(S(=O)(=O)NCc2nc3cccnc3n2C)cc1 | -2 | 0.25
O=C(c1cccc2[nH]ccc12)N1CCN(S(=O)(=O)c2cccc3nonc23)CC1 | -5 | 0.71
O=C(Nc1cccnc1-n1nc(C(F)(F)F)cc1C(F)(F)F)c1cccc(C(F)(F)F)c1 | 1 | -0.09
CCc1nnc(C2CCN(S(=O)(=O)c3ccc(C)cc3)CC2)s1 | -11 | 1.72
C=CCn1nc(C)c(CN2CCc3[nH]cnc3[C@@H]2c2cc(C)no2)c1C | 5 | -0.48

Structure (SMILES) | % Inhibition [%] | Z score
CCCC(=O)NCCC[C@H]1CCCN1C(=O)OC(C)(C)C | 1 | -0.11
O=c1[nH]c(=O)n(C[C@H]2Cc3ccccc3O2)cc1Cl | -6 | 0.88
NC(=O)c1ccc(=O)n(CCc2ccccc2)n1 | -14 | 2.59
Cn1nc(C(=O)Nc2cc(S(=O)(=O)N3CCOCC3)ccc2N2CCCC2)c2ccccc2c1=O | -1 | 0.07
Cc1ccc(Nc2c(-c3cc4ccccc4cc3O)nc3ncccn23)cc1 | 35 | -4.7
CN(C)c1nc(/C=C/C2CCCCC2)ncc1F | 7 | -1.09
CN(C(=O)c1ccc2[nH]nnc2c1)[C@H]1CCCN(CCCc2ccccc2)C1 | -13 | 1.68
O=C(CN1C(=O)c2cccnc2Oc2ccccc21)N1CCC(N2CCCCC2)CC1 | -11 | 1.41
Cc1noc(C)c1CCC(=O)N1CC2(CCC2)[C@@H]1C1CC1 | -2 | 0.37
Cc1ccc(CN2CCNC(=O)[C@@H]2CC(=O)N2CCN(c3ncnc(C)c3C)CC2)o1 | -7 | 0.72
Cc1cnc(NC(=O)COC2CCCCC2)s1 | -8 | 0.73
CC(C)CC1NC2(C(=O)N(Cc3ccccc3F)c3ccccc32)C2C(=O)N(c3cccc(Cl)c3)C(=O)C12 (stereo not drawn) | 35 | -4
CC(C)(O)CCc1ccc(C(=O)N2CCNC(=O)[C@@H]2Cc2c[nH]cn2)cc1 | 4 | -0.51
COc1ccccc1[C@H]1CN(C(=O)NC2CCCC2)C[C@@H]1C(=O)O | 4 | -0.31
O=C(NS(=O)(=O)N1CCc2ccccc21)c1cc(F)c(Cl)cc1F | 9 | -1.21
CC(C)n1nccc1[C@@H]1OCCC[C@H]1c1nc(-c2cncs2)no1 | -9 | 1.13
Cc1n[nH]c(C2CC2)c1C(=O)N1CCC[C@H](O)CC1 | 1 | -0.16
CCc1ccc(S(=O)(=O)[C@H]2CS(=O)(=O)C[C@@H]2NCc2ccc(OC)c(OC)c2)cc1 | -11 | 1.48
O=C(Nc1c[nH]c(=O)[nH]c1=O)c1cc(O)ncn1 | -5 | 0.93
O=C(CN1CC[C@@]2(CCCN(Cc3ccc(F)c(F)c3)C2=O)C1)N1CCOCC1 | 5 | -0.66
O=C(NCc1nnc2ccc(N3CCCC3)nn12)c1ccc(=O)[nH]n1 | 17 | -2.18

Structure (SMILES) | % Inhibition [%] | Z score
C#CCN(C(=O)c1ncoc1C(C)C)[C@H]1CCS(=O)(=O)C1 | 5 | -0.66
O=C(COc1ccccn1)NC1CCCC1 | 7 | -1.44
COc1ccc(-n2c(C)cc(C(=O)N(C)C3C4CCOC4C3(C)C)c2C)cc1 (stereo not drawn) | 14 | -1.73
Cc1ccc(C)c(NC(=O)[C@H]2CCCN(C(=O)Cc3cccc4ccccc34)C2)c1 | -6 | 1.01
CC[C@H]1C[C@@H](NC(C)=O)C[C@@H](c2nc(C(C)C)cs2)O1 | -9 | 1.08
N[C@H](c1nc(C2CCOCC2)nn1-c1ccncc1)C1CC1 | -13 | 1.5
Cc1cc(-c2cccnc2)nn1CCNC(=O)NCc1cccs1 | 27 | -3.48
CN(C(=O)NCCN1CCCOCC1)C1CC1 | -1 | 0.1
CCN(C(=O)c1cccnc1)c1ncccc1C | -9 | 1.02
COc1ccc(NC(=O)c2ccc(C)nc2C2CCN(C(=O)c3c(F)cccc3F)CC2)cc1 | 6 | -0.7
CC(C)c1nc(C2CCCN(C(=O)C3COCCO3)C2)no1 (stereo not drawn) | -11 | 1.64
COc1ccc(COCC(=O)NCc2nn(C)cc2C)cc1 | -13 | 2.33
CCC(=O)Nc1cc(F)ccc1C(C)=O | -12 | 1.38
CCNS(=O)(=O)[C@H]1CCN(C(=O)c2cccc(OC(C)C)n2)C1 | -14 | 1.86
O=C(O)CCN1CCC[C@H](c2nc(C(F)(F)F)cs2)C1 | -4 | 0.39
NC(=O)C1CCCC1NC(=O)c1ccc(C2CCC2)cc1 (stereo not drawn) | 9 | -1.19
Cc1cc(S(=O)(=O)Nc2nc(C(F)(F)F)c[nH]2)c(C)o1 | -6 | 0.78
O=C(Cc1ccccc1F)N1CC[C@H]2[C@H](CCCN2CC2CCCCC2)C1 | -8 | 0.87
CCc1c(C(=O)N[C@H]2COC[C@@H]2O)cnn1CCC(C)C | -7 | 1.02
COc1cccc(CN2C[C@]34C=C[C@H](O3)C(C(=O)N3CCN(C)C(=O)C3)C4C2=O)c1 (stereo partly drawn) | -2 | 0.23
O=C(C1=Cc2ccccc2OC1)N1CCCS1(=O)=O | -11 | 1.33

Structure (SMILES) | % Inhibition [%] | Z score
O=C(NCCc1c[nH]c2ccccc12)c1c[nH]c(=O)n(Cc2ccco2)c1=O | -1 | 0.24
CCn1c(-c2cccc(OC)c2)nc2cc(NC(C)=O)cc(C(=O)NCCc3cnccn3)c21 | 20 | -2.51
C[C@@H](Cc1cnccn1)N(C)C(=O)Cc1c[nH]c2ccccc12 | -5 | 0.89
COc1cc(CNCc2ccncc2)ccc1OCc1ccc(C)cc1 | -1 | 0.2
O=C(NCc1ccc(Cl)s1)N[C@H](CO)Cc1ccc(O)cc1 | -14 | 1.93
CCn1ncnc1[C@H](C)NC(=O)Nc1cccc2[nH]nnc12 | 1 | -0.18
CNC(=O)c1cccnc1NCC1(N(C)C)CCCC1 | 3 | -0.52
COCCn1ccnc1CN(C)CCN1CCOCC1 | -3 | 0.61
COCCN(Cc1ccc(C)o1)C(=O)c1ccon1 | -6 | 0.99
OCC1([C@@H](NCc2ncc(Cl)cc2Br)C2CC2)CCOCC1 | -8 | 1.31
O=S1(=O)c2ccccc2N(Cc2cccc(C(F)(F)F)c2)c2ccccc21 | 1 | -0.14
CCN1CCN([C@H]2CCN(c3nc(-c4ccc(F)cc4)no3)C2)CC1 | 1 | -0.16
O=C1C[C@@H](c2ccccc2)N(Cc2ccncc2)CCCN(C(=O)CC2CCCCC2)CCN1 | 2 | -0.24
CN(C)C(=O)c1cccnc1-c1cccc(OCc2ccc(F)cc2)c1 | -3 | 0.51
CC(C)N1C[C@@H](C(=O)N2CCN(c3ccc(F)c(Cl)c3)CC2)CC1=O | 8 | -1.57
Oc1cc(-c2ccc(Cl)cn2)cc2c1OCCN(Cc1ccco1)C2 | 0 | 0.07
Cc1ccc(CCC(=O)NCc2cccnc2-c2ccncc2)cc1F | -12 | 1.38
Cc1ncn(CC(=O)NCC(=O)N[C@@H](C)c2ccc(F)cc2)c1C | -7 | 0.7
CCCN(Cc1cc(-c2ccccc2)on1)C(=O)c1ccco1 | -2 | 0.3
COc1ccnc(C(=O)N[C@@H](C)c2nc(C)sc2C)c1 | -8 | 1.07
O=C([C@@H]1C[C@H](Oc2ccccc2)CN1C1CCOCC1)N1CCC(Cc2ccccc2)CC1 | -6 | 0.8
